Data: a collection of fitness landscapes (doi:10.1016/j.celrep.2020.107928)
Whole data set: some 81,000 sequences, median “one-hybrid fitness for binding parS DNA” near -0.17, cut for the highest 2% near 0.51. Some of the results follow.

B1: Caulobacter ParB omega fusion; a variant is named by its letters at X, in order, B8GW30 (parent)
chain: MESVVVGEPGMSEGRRGLGRGLSALLGEVDAAPAQAPGEQLGGSREAPIEILQRNPDQPRRTFREEDLEDLSNSIREKGVLQPILVRPSPDTAGEYQIVAGERAWRAAQRAGLKTVPIMVRELDDLAVLEIGIIENVQRADLNVLEEALSYKVLMEKFERTQENIAQTIGKSXSHVANXMRLLXLPDEVQSYLVSGELTAXHARAIAAAADPVALAKQIIEGGLSVRETEALARKAPNLSAGKSKGGRPPRVKDTDTQALESDLSSVLGLDVSIDHRGSTGTLTITYATLEQLDDLCNRLTRGI

Variants of: B1
Assay: one-hybrid fitness for binding parS DNA (scaled: cognate 1, non-cognate 0); higher = stronger binding
Conditions: with parS DNA site
Method in brief: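 The reporter was HIS3, with the binding site 19 bp from the promoter, in E. coli USO used for bacterial one-hybrid selection of Caulobacter ParB libraries with four specificity codons randomised. Growth was on M9 lacking histidine, with 0.1 mM IPTG and 5 mM 3-AT, for 48 hours at 37°C. Illumina sequencing covered plasmids before and after selection; three replicate libraries were pooled and variants with under 10 reads dropped. A fitness score is the log change in variant-to-wild-type read ratio, rescaled to the cognate and non-cognate references.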

one-hybrid fitness for binding parS DNA, 0.429:
YAYA

one-hybrid fitness for binding parS DNA, 1.07:
RIYS

one-hybrid fitness for binding parS DNA, 0.47:
RGIG

one-hybrid fitness for binding parS DNA, 0.659:
RTNY

one-hybrid fitness for binding parS DNA, 0.724:
RRAA

one-hybrid fitness for binding parS DNA, 0.961:
RNRS

one-hybrid fitness for binding parS DNA, ≤ 0.2:
FYHR
HVIR
YYLV
RIYI
DYAK
ETPI
NWMR
FLGS
PFAW
SPKY
MFID
WVNN
RWTF
WSCM
VVIT
NSDE
GFKC
HLTY
TKLA
FSYA
QQST
VVYG
FKHS
LSAF
DISC
YLLS
TWAK
KVFS
FNRY
SAQE
TIRR
PVQI
HFMR
PSEH
SPDG
THDG
MCLG
KCKS
WIRE
CLMY
QTAR
QKQD
QMKT
PECR
IAII
HTIE
KNNR
SSLN
CRHH
MSGC
LPWT
PQKV
VYPH
DGKW
FQTL
SYDG
SPKN
IFSR
CDWV
AGPM
DRAC
SAMR
VFTW
AFHA
ARNT
QQLL
FQHS
WPSP
LHPL
YGQR
LSQS
RQTQ
DHLM
KKTE
TYRC
PHID
TPLD
LARQ
PAGP
AQAF
MIHR
DCIS
TCVA
WDSR
PQIA
DSLE
PSTW
DYLC
MAQC
VYPL
QRWQ
NELC
YFMG
FVNC
EAVT
QYWC
SSEQ
HSPS
TIQS
PVCC
TDAG
KVRS
CTLQ
KCNC
IASD
TYCG
MRVI
EPSL
RDSM
EMTC
PLLG
INLI
GGSG
REWC
YKQA
PSMH
KFST
NNPE
SIIT
NDHT
TWFV
CMKG
LSEI
YSML
NRFQ
LVEA
NRYF
HRYV
VSHE
TLES
PRDN
NSAR
KLRL
STRF
CMVG
CGTY
VFSV
FPEG
MPGG
GKPG
IRNM
TDAV
PSHR
HPQT
HQMM
CSMT
IKER
RHGH
TNDT
EEVG
RTLR
ETLK
NELS
QHCS
SFRL
TGGC
LPPV
TYST
KVQA
GRFC
FSKF
AALY
LMVA
NLIG
LQRH
YDNH
VQRH
SMSE
RSVV
IKSD
EPRS
NTHF
LRTW
SHEG
QHTT
VHER
SVYP
SSPI
STLN
YAVL
RLHI
KKPI
RTRP
TRTD
VMTG
RPAL
VWRY
QQNP
TYWT
CAQE
IAMM
KAQG
KCSM
DKAA
FKTT
CCQW
VEKR
DDGS
EDTT
MKWR
CTDT
FHKC
ACVR
MKFW
APTP
WVSR
DKQT
TSMP
DRER
QDCM
HSWT
PEYE
GAIR
HMKS
HDAA
HRRL
SVSR
NVKM
QDPL
GEHR
SLCP
HITS
PMNH
CWTL
IFRG
GGGV
IPSD
MNTI
HKTE
VVTR
RCMV
MCAL
TNIG
RYDP
RYSR
NLPT
TSYA
YTAG
IMCR
CAVG
GANT
NQPG
RKAV
DRTD
NPTA
TCNL
VPNV
PRML
RWPR
RGSE
AMPT
QWAT
DPLM
RPVR
KNPG
TSLM
CLAR
PTCS
WPQL
REYT
YTKS
NPSW
FAKH
GPNP
VSWL
LISP
MMDS
GTVV
NLSR
PRHC
SHIY
LVCR
TSSF
SSIL
WLGG
HTPE
EMIK
LSGN
SVCA
MTTT
CLWI
PGLG
KRIE
YVAG
TGSL
QNWG
YLMV
PEDE
ANSW
AALN
EASY
TMFS
VPVF
TKPK
PERD
GFLS
GASC
IMHG
QLFF

one-hybrid fitness for binding parS DNA, 0.245:
RLQW
